This data set is described as follows: soluble fraction after stress (log2 fold change); higher = more stays soluble; pooled small domains, quantitative proteomics. As to conditions: stress: 75 degC.
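Further: 20 min heating vs room temperature control held 20 min.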

As to “HMKYKDYYAVLGVPRDADLDQIKKAYRKLARQFHPDVSKEPNAEAQFKEAGEAYATLKDAEKRAAYDQLG”, the “soluble fraction (log2)” value stood at 0.341.
Turning to “HMQVDDAELIDLVEMEIRELLTSYEFPGDTIPIVKGSALAALEGRDDEIGKNSILELMKAVDESIPQPT”, the “soluble fraction (log2)” value worked out at 0.205.
“HMADYYSVLGVERDATEEEIKRAYRKMSRKYHPDLAGPQFEEKFKEVNTAYEVLSDPEKRRMFDMGVDPN”: the “soluble fraction (log2)” value came to 0.245.
The value for “HMGIYRHFKGGLYEVVGTAKHSETEEELIVYRALYGDYGLWARPAAMFTETVEIDGEPLPRFSLI” was -0.313; that for “HMVDYYEVLGVRVDASDSEVKRAYRRLIVENHPDKLIAQGLPQEFIDLANEKMGAINSAYDMIKKERRI” was -0.521; that for “HMSDYYSVLGVSRDATGEEIKRAYRKLARELHPDVNPDPATNEKFKEVTAAYEVLSDPSKRQMYDLGGDPR” was -0.108.
As to “HMQSHRFQRLQNDLANRIAQTPPSERLPSEPQLAQELGVSRATLREAMRAFEAQGLIRRKQGAGTFVVG”, the “soluble fraction (log2)” value came out at 0.06.
Consider “HMDQVDDEELLDLVELEVRELLSAYEFPGDDIPIIKGSALAALEGGDEATGKNAILELMKAVDDYVPQPE”, for which the “soluble fraction (log2)” value is -0.168.
Regarding “HMPREEGIVKWFNRTKGFGFIIRENGDEIFVHHRSVSAHGGQRANLSDGQRVTFTVVERSKGWQAEDVDP”, the “soluble fraction (log2)” value was -2.08.
On to “HMKAAYITIHDKIKDDIDLGIWKIGQRLPSERDLADEFGVSRMTLRQAITLLVEEGVLTRKVGSGTYVAS”, for which the “soluble fraction (log2)” value was -3.44.
On to “HMPLHDIGKVGIPDHILLKPGKLTPAEWEVMKTHARLGAAAIEQAEREATRPVEFLVLAKEIAHHHHER”, for which the “soluble fraction (log2)” value is 0.811.
Take “HMNDDYYAILGVSRDADQSEIKKAYRKKARETHPDYGGDEEAFKAVSVAYETLSDPEKRRMYDIGGPDAAR”: the “soluble fraction (log2)” value is 0.169.

(Values after the domain aggregation screens of Martell et al. (2025).)
